Laboratory results published in patent US20260008856A1, “METHODS OF TREATING DISEASE USING ANTI-IL1RAP ANTIBODIES AND ANTIBODY DRUG CONJUGATES” (Bluefin Biomedicine, Inc., priority 2022, published 2026).

Key:
DMS79 = assay: Flow cytometry binding to endogenous cell line DMS79; type: cell-based; parameters: key: (−): No binding; (+): Weak binding; (++): Moderate binding; (+++): Strong binding; settings: primary antibody 1 ug/ml
Description: (§1) Staining for flow cytometry was performed in 1× cold PBS with 0.5% BSA. Primary antibodies (1 ug/ml) were incubated with live cells on ice for 30 minutes, after a brief wash, cells were incubated with Alexa Fluro® 488-conjugated anti-human IgG secondary antibody @1:1000 (709-546-149, Jackson ImmunoResearch). Acquisition of the data was performed on a MACSQuant® Flow Cytometers (Miltenyi Biotec) and analyzed with FlowJo software.

EOL-1 = assay: Flow cytometry binding to endogenous cell line EOL-1; type: cell-based, human; parameters: key: (−): No binding; (+): Weak binding; (++): Moderate binding; (+++): Strong binding; settings: primary antibody 1 ug/ml
Description: as §1
Over 1,000 hits were identified that bind strongly to CHO-human IL1RAP, but not parental CHO cells. 68 clones were selected for molecular cloning. Based on unique CDR3 sequences from the heavy chain variable domain, 35 antibodies from 13 families were confirmed by binding in IL1RAP positive cell lines EOL1 and Karpas 299 (see Table 8) by flow cytometry (MACSQuant® www.miltenybiotec.com).

B1: 39A9_28A4: human anti-IL1RAP antibody, VH SEQ ID NO: 130, VL SEQ ID NO: 134 (antibody, V domains shown)
VH: QVQLVESGGGVVQPGRSLRLSCAASGFTLSGYGMHWVRQAPGKGLEWVAVIWYDGSNKYYADSVKGRFTISRDNSKNMLFLQMNSLRAEDTAVYYCVRENGFGSGWFFDYWGQGNLVTVSS
VL: EIVMTQSPATLSVSPGERATLSCRTSQSVSRDLAWYQQKPGQAPRLLIYGASTRATGIPVRFSGSGSGTEFTLTISSLQSEDFAVYYCQQYNNWPPWTFGQGTKLEIK
binding to DMS79 by flow cytometry (DMS79): (−)
binding to EOL-1 by flow cytometry (EOL-1): (+++)
